Test results from patent EP0562731A1, “Substituted pyridinesulfonamide compounds or their salts, process for preparing the same, and herbicides containing the same” (ISHIHARA SANGYO KAISHA, Ltd., priority 1992, dated 1993).
At least one read-out could not be matched to a standard name with certainty.

Experiments:
Experiment in all cases: Test Example 1: foliar application pot test, visual growth control rating
Format in all cases: in vivo
Conditions in all cases: wettable powder, observed 20 to 31 days after application
[1] = test system: cocklebur (Xanthium strumarium); set-up: key: 1: the same as in an untreated plot; 10: perfect growth control
Excerpt: (§1) 1/1,500 are [are (a) = 100 m²] pots were filled with upland farming soil, which in the pots was then sown with a variety of plants. The plants grown will be enumerated below.
(§2) When each plant reached a given growth stage (a 1.2- to 3.0-leaf stage for rice, primary leaf to a 0.7-leaf stage for soybean, 2.1- to 3.6-leaf stage for corn, cotyledon to 0.7-leaf stage for cotton, 2.0- to 3.0-leaf stage for wheat, 0.3- to 3.4-leaf stage for cocklebur, 0.3- to 1.6-leaf stage for morning glory, 0.1- to 1.3-leaf stage for prickly sida, 0.1- to 1.3-leaf stage for slender amaranth, 1.5- to 3.2-leaf stage for barnyard glass, and 1.2- to 3.0-leaf stage for large crabgrass), a predetermined amount of the herbicide of the present invention in the form of a wettable powder, weighed out, diluted with 5 ℓ/a of water and admixed with 0.2 or 0.1 vol%, based on the resulting composition, of an agricultural spreader, was foliarly applied to the plant with a small spray gun. The progress of growth of the plant was visually observed 20 to 31 days after the foliar application to evaluate the degree of growth control according to 10 ratings (1: the same as in an untreated plot - 10: perfect growth control).

cotton (Gossypium) = test system: cotton (Gossypium); set-up: key: 1: the same as in an untreated plot; 10: perfect growth control
Excerpt: as §1, §2

soybean (Glycine max) = test system: soybean (Glycine max); set-up: key: 1: the same as in an untreated plot; 10: perfect growth control
Excerpt: as §1, §2

[2] = test system: prickly sida (Sida spinosa)
Excerpt: as §1, §2

[3] = test system: morning glory (Ipomoea purpurea); set-up: key: 1: the same as in an untreated plot; 10: perfect growth control
Excerpt: as §1, §2

[4] = test system: large crabgrass (Digitaria adscendens)
Excerpt: as §1, §2

rice (Oryza sativa) = test system: rice (Oryza sativa); set-up: key: 1: the same as in an untreated plot; 10: perfect growth control
Excerpt: as §1, §2

[5] = test system: slender amaranth (Amaranthus viridis); set-up: key: 1: the same as in an untreated plot; 10: perfect growth control
Excerpt: as §1, §2

[6] = test system: barnyard grass (Echinochloa crus-galli); set-up: key: 1: the same as in an untreated plot; 10: perfect growth control
Excerpt: as §1, §2

corn (Zea mays) = test system: corn (Zea mays); set-up: key: 1: the same as in an untreated plot; 10: perfect growth control
Excerpt: as §1, §2

Row | SMILES | degree of growth control, XA ([1]; 0.31 g/a active ingredient) | degree of growth control, XA ([1]; 1.25 g/a active ingredient) | degree of growth control, GO (cotton (Gossypium); 0.31 g/a active ingredient) | degree of growth control, GO (cotton (Gossypium); 1.25 g/a active ingredient) | degree of growth control, GL (soybean (Glycine max); 0.31 g/a active ingredient) | degree of growth control, GL (soybean (Glycine max); 1.25 g/a active ingredient) | degree of growth control, SI ([2]; 0.31 g/a active ingredient) | degree of growth control, SI ([2]; 1.25 g/a active ingredient) | degree of growth control, IP ([3]; 0.31 g/a active ingredient) | degree of growth control, IP ([3]; 1.25 g/a active ingredient) | degree of growth control, DI ([4]; 0.31 g/a active ingredient) | degree of growth control, DI ([4]; 1.25 g/a active ingredient) | degree of growth control, OR (rice (Oryza sativa); 0.31 g/a active ingredient) | degree of growth control, OR (rice (Oryza sativa); 1.25 g/a active ingredient) | degree of growth control, AM ([5]; 0.31 g/a active ingredient) | degree of growth control, AM ([5]; 1.25 g/a active ingredient) | degree of growth control, EC ([6]; 0.31 g/a active ingredient) | degree of growth control, EC ([6]; 1.25 g/a active ingredient) | degree of growth control, ZE (corn (Zea mays); 0.31 g/a active ingredient) | degree of growth control, ZE (corn (Zea mays); 1.25 g/a active ingredient)
1 | CCN(c1cccc(S(=O)(=O)NC(=O)Nc2nc(C)nc(OC)n2)n1)S(=O)(=O)C(C)Cl (racemic) [Compound No. 54, 6-[[N-(1-chloroethylsulfonyl)-N-ethyl]amino]-N-[[(4-methoxy-6-methyltriazin-2-yl)amino]carbonyl]-2-pyridinesulfonamide] | 9 | 10 | 4 | 6 | 1 | 2 | 6 | 7 | – | – | – | – | – | – | – | – | – | – | – | –
2 | CCN(c1cccc(S(=O)(=O)NC(=O)Nc2nc(OC)nc(OC)n2)n1)S(=O)(=O)C(C)Cl (racemic) [Compound No. 55, 6-[[N-(1-chloroethylsulfonyl)-N-ethyl]amino]-N-[[(4,6-dimethoxytriazin-2-yl)amino]carbonyl]-2-pyridinesulfonamide] | – | – | 5 | 7 | 2 | 3 | – | – | 8 | 9 | 5 | 7 | – | – | – | – | – | – | – | –
3 | CCN(c1cccc(S(=O)(=O)NC(=O)Nc2nc(C)nc(OC)n2)n1)S(=O)(=O)C(C)Br (racemic) [compound 78] | – | – | 8 | 9 | 6 | 10 | 5 | 6 | – | – | 6 | 8 | 9 | 10 | 3 | 4 | – | – | – | –
4 | COc1nc(C)nc(NC(=O)NS(=O)(=O)c2cccc(N(C)S(=O)(=O)C(C)Cl)n2)n1 (racemic) [compound 85] | 9 | 10 | 3 | 6 | 2 | 5 | 4 | 6 | 7 | 10 | 5 | 6 | 9 | 10 | 5 | 7 | – | – | – | –
5 | CCCN(c1cccc(S(=O)(=O)NC(=O)Nc2nc(C)nc(OC)n2)n1)S(=O)(=O)C(C)Cl (racemic) [compound 86] | 9 | 10 | 8 | 9 | 6 | 10 | 4 | 5 | – | – | 3 | 6 | 9 | 10 | 5 | 6 | – | – | – | –
6 | CCC(Cl)S(=O)(=O)N(CC)c1cccc(S(=O)(=O)NC(=O)Nc2nc(C)nc(OC)n2)n1 (racemic) [compound 88] | – | – | – | – | 5 | 6 | 5 | 6 | – | – | 5 | 6 | 9 | 10 | 5 | 6 | – | – | – | –
7 | CCN(c1cccc(S(=O)(=O)NC(=O)Nc2nc(OC)nc(OC)n2)n1)S(=O)(=O)C(Cl)Cl [Compound No. 57, 6-[(N-dichloromethylsulfonyl-N-ethyl)amino]-N-[[(4,6-dimethoxytriazine-2-yl)amino]carbonyl]-2-pyridinesulfonamide] | – | – | – | – | 1 | 2 | 7 | 8 | – | – | – | – | 6 | 8 | 8 | 9 | 7 | 8 | 6 | 9
8 | COc1nc(C)nc(NC(=O)NS(=O)(=O)c2cccc(N(OC)S(=O)(=O)C(C)C)n2)n1 [compound 41] | 6 | 8 | 1 | 3 | 1 | 2 | 2 | 5 | 5 | 6 | 7 | 9 | 9 | 10 | 7 | 9 | – | – | – | –
9 | CCN(c1cccc(S(=O)(=O)NC(=O)Nc2nc(C)nc(OC)n2)n1)S(=O)(=O)C(Cl)Cl [compound 56] | – | – | – | – | 3 | 4 | 6 | 8 | 9 | 10 | – | – | – | – | 9 | 10 | – | – | – | –
10 | CCN(c1cccc(S(=O)(=O)NC(=O)Nc2nc(C)nc(OC)n2)n1)S(=O)(=O)C(C)(C)Cl [compound 87] | – | – | 3 | 6 | 3 | 6 | 2 | 4 | 6 | 10 | 2 | 3 | 6 | 8 | 4 | 6 | 3 | 5 | 8 | 9
11 | COc1nc(C)nc(NC(=O)NS(=O)(=O)c2cccc(N(C)S(=O)(=O)C(Br)(Br)Br)n2)n1 [compound 89] | – | – | 4 | 5 | 5 | 9 | 3 | 5 | 8 | 10 | – | – | 6 | 9 | 6 | 7 | 9 | 10 | 6 | 9
12 | CCN(c1cccc(S(=O)(=O)NC(=O)Nc2nc(C)nc(OC)n2)n1)S(=O)(=O)C(Br)(Br)Br [compound 90] | – | – | 5 | 7 | 9 | 10 | – | – | 8 | 9 | – | – | 8 | 9 | 6 | 7 | – | – | 7 | 8
13 | CCN(c1cccc(S(=O)(=O)NC(=O)Nc2nc(C)nc(OC)n2)n1)S(=O)(=O)C(Cl)(Cl)Cl [compound 91] | – | – | – | – | 9 | 10 | 7 | 9 | – | – | 6 | 9 | – | – | 9 | 10 | 9 | 10 | 9 | 10
